According to the supplement of paper PMC7826260:
Some of the results follow. Cleavage of a single-stranded DNA pool by Rep nickase domains was read by sequencing (3 µM enzyme, 1 h, 37 °C); shown is the middle of each 90-letter strand. The score is log2 (uncut reads / reads without enzyme); strong cutting gives strongly negative numbers. There is no active / inactive call. Counts are relative to all reads; where an enzyme cuts many sequences, the uncut ones exceed 0.

Key:
Assay in all cases: uncleaved DNA left, log2 of reads against the no-enzyme library (log2 ratio); higher = less cleavage (more negative = more Rep cleavage of the k-mer); sequences stand for … in CTCGTCCG…ACCGGAGA
[1] = tested on: T1, Rep nickase domain of Muscovy duck circovirus
T1 sequence (Rep 1-111, printed without the tag): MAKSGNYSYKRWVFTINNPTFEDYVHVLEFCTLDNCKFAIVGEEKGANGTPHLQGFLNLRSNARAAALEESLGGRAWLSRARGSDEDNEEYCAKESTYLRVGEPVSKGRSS
Description: (§1)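 A pool of 90-nt single-stranded DNAs with seven random bases just before the constant AC of the nick site (name = the seven bases) was cut by 3 µM recombinant His6-SUMO-tagged Rep nickase domain (300 nM DNA, 50 mM HEPES pH 8.0, 50 mM NaCl, 1 mM MnCl2, 1 h, 37 °C, three replicates). Uncut DNA was amplified and sequenced.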

[2] = tested on: T2, Rep nickase domain of banana bunchy top virus
T2 sequence (Rep 1-94, printed without the tag): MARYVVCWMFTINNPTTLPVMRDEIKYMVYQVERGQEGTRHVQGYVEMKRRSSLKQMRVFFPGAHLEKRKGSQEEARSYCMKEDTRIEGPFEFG
Description: as §1

[3] = tested on: T3, Rep nickase domain of cabbage leaf curl virus
T3 sequence (Rep 1-116, printed without the tag): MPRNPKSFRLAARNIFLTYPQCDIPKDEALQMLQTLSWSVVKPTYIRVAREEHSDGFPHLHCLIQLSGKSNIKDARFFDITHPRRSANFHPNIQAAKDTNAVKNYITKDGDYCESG
Description: as §1

[4] = tested on: T4, Rep nickase domain of chickpea chlorotic dwarf virus
T4 sequence (Rep 1-124, printed without the tag): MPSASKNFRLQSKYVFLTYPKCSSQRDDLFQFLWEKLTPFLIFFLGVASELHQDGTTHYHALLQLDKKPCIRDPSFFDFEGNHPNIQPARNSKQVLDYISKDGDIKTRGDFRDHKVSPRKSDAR
Description: as §1

[5] = tested on: T5, Rep nickase domain of faba bean necrotic yellows virus
T5 sequence (Rep 1-98, printed without the tag): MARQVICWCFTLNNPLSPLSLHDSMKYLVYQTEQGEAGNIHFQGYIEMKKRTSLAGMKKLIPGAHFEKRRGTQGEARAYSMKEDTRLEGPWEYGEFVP
Description: as §1

[6] = tested on: T6, Rep nickase domain of maize striate mosaic virus
T6 sequence (Rep 1-117, printed without the tag): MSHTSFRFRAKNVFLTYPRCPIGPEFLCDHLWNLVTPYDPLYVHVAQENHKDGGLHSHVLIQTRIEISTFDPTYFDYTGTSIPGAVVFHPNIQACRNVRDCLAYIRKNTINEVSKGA
Description: as §1

[7] = tested on: T7, Rep nickase domain of porcine circovirus 2
T7 sequence (Rep 2-116, printed without the tag): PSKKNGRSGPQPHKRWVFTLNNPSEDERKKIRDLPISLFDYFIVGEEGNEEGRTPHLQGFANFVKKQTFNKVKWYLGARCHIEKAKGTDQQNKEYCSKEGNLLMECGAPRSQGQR
Description: as §1

[8] = tested on: T8, Rep nickase domain of tomato yellow leaf curl virus
T8 sequence (Rep 1-136, printed without the tag): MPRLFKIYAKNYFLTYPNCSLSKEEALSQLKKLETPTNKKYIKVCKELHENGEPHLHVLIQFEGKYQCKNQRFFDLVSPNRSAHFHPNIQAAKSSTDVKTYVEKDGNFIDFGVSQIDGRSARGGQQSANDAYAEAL
Description: as §1

[9] = tested on: T9, Rep nickase domain of wheat dwarf virus
T9 sequence (Rep 1-137, printed without the tag): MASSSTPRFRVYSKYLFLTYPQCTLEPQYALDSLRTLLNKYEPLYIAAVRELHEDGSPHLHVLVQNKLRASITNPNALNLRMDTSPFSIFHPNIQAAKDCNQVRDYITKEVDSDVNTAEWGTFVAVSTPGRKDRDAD
Description: as §1

| Sequence | uncleaved DNA left (log2) [1] | uncleaved DNA left (log2) [2] | uncleaved DNA left (log2) [3] | uncleaved DNA left (log2) [4] | uncleaved DNA left (log2) [5] | uncleaved DNA left (log2) [6] | uncleaved DNA left (log2) [7] | uncleaved DNA left (log2) [8] | uncleaved DNA left (log2) [9] |
| --- | --- | --- | --- | --- | --- | --- | --- | --- | --- |
| GACGCCT | -0.0183 | -0.1 | -0.108 | -1.8 | -0.133 | 0.227 | -0.177 | -0.0137 | -0.132 |
| CTGTCCG | 0.0895 | 0.13 | -0.312 | -0.19 | 0.142 | -0.618 | 0.264 | 0.053 | -0.000392 |
| TCTATCG | -0.0873 | -0.0729 | -0.869 | -0.472 | -0.139 | -1.2 | -0.0267 | -0.0675 | -0.179 |
| AACTGGC | -0.000451 | 0.000327 | -0.168 | -0.117 | 0.025 | -0.681 | 0.0738 | 0.0187 | 0.0468 |
| ATGTGTC | 0.0321 | -0.106 | -0.14 | -0.418 | -0.0487 | -0.798 | -0.0862 | -0.123 | -0.0761 |
| ACTATAT | -0.0834 | -0.0102 | -0.136 | -0.817 | -0.0478 | -0.749 | -2.24 | -0.154 | -0.113 |
| CATACAC | 0.109 | 0.0643 | 0.0557 | -1.01 | 0.00443 | -0.62 | 0.144 | 0.0466 | 0.0128 |
| AGCGGGT | 0.0227 | 0.0817 | 0.145 | 0.557 | -0.0282 | 1.48 | 0.0251 | -0.0858 | -0.00596 |
| CGACAAT | -0.0095 | 0.0721 | 0.0766 | 0.499 | 0.0792 | 1.02 | 0.0537 | 0.103 | 0.145 |
| TCTCTCA | -0.105 | -0.268 | -0.0315 | -0.94 | -0.13 | -0.316 | -0.061 | -0.153 | -0.202 |
| ACACATA | -0.0126 | -0.143 | -0.333 | -1.05 | -0.0426 | -0.645 | 0.0666 | -0.166 | 0.0494 |
| CTCTGCA | 0.0378 | 0.0309 | -0.44 | -0.797 | -0.0434 | -1.1 | -0.0316 | 0.0556 | 0.0305 |
| CCTAATT | -0.0566 | 0.141 | 0.0128 | -2.56 | 0.0993 | -0.839 | -0.64 | -0.144 | -0.15 |
| AAGGCGC | 0.0557 | -0.0355 | -0.681 | -0.506 | 0.0172 | -0.796 | 0.207 | 0.0937 | -0.105 |
| GCATCTT | -2.27 | 0.176 | 0.0184 | -1.46 | 0.142 | 0.0579 | -2.36 | 0.166 | 0.186 |
| AATGTCT | 0.00986 | -0.0229 | -0.406 | -2.29 | 0.123 | -0.546 | -1.36 | 0.0512 | -0.0987 |

| Sequence | uncleaved DNA left (log2) [1] | uncleaved DNA left (log2) [2] | uncleaved DNA left (log2) [3] | uncleaved DNA left (log2) [4] | uncleaved DNA left (log2) [5] | uncleaved DNA left (log2) [6] | uncleaved DNA left (log2) [7] | uncleaved DNA left (log2) [8] | uncleaved DNA left (log2) [9] |
| --- | --- | --- | --- | --- | --- | --- | --- | --- | --- |
| TATGCGA | 0.0415 | 0.00679 | -0.752 | 0.368 | -0.0406 | -0.801 | 0.0246 | 0.0142 | -0.0989 |
| TTCGTGC | -0.0557 | -0.063 | -0.47 | -0.554 | 0.0839 | -0.949 | 0.0493 | -0.143 | -0.172 |
| TGATTCC | -0.265 | 0.0297 | 0.24 | 0.143 | 0.0514 | 0.504 | -0.44 | -0.0514 | 0.0796 |
| GGGTCGT | -0.0374 | -0.0309 | 0.838 | 1.88 | -0.0109 | 2.21 | 0.126 | -0.0404 | 0.0675 |
| TACTTTT | -3.95 | -3.41 | -3.34 | -3.38 | -0.427 | -1.31 | -4.26 | 0.162 | -1.57 |
| CTAATGA | -0.0606 | 0.0793 | -0.00456 | -0.105 | 0.0467 | -0.878 | 0.103 | 0.017 | -0.00499 |
| TTTATAT | 0.0133 | 0.0512 | 0.206 | -0.62 | 0.0103 | -0.24 | -0.435 | 0.00135 | 0.00904 |
| GGAGCAA | 0.0661 | 0.116 | 0.846 | 1.88 | 0.0325 | 2.17 | 0.25 | 0.115 | 0.238 |
| AAATCGC | -0.0653 | -0.0964 | -1.62 | -1.43 | -0.0483 | -1.45 | -0.0799 | -0.113 | -0.336 |
| GACCCAT | 0.113 | -0.032 | 0.463 | -0.0898 | -0.00496 | 1.24 | -0.0665 | 0.103 | 0.0705 |
| TGGGGCT | 0.156 | 0.0996 | 0.851 | 1.77 | 0.0321 | 2.23 | 0.307 | 0.014 | 0.103 |
| TGCAAGT | -0.0466 | 0.0325 | -0.0682 | -0.252 | 0.0283 | -0.732 | 0.0697 | 0.0871 | 0.0316 |
| TGCCGAT | -0.121 | -0.0384 | -0.0219 | 0.136 | -0.192 | 0.159 | -0.0147 | -0.129 | -0.0425 |
| GGACCCC | -0.0123 | 0.176 | 0.886 | 1.69 | 0.124 | 2.2 | 0.216 | 0.133 | 0.321 |
| TGAGAAG | 0.157 | 0.0679 | -0.447 | -0.342 | 0.0801 | -0.825 | 0.26 | 0.0978 | 0.00991 |
| ATACTTC | 0.048 | -0.0391 | 0.0521 | -0.985 | 0.014 | -0.704 | 0.093 | -0.0659 | 0.00984 |
